# Test results published in PubChem BioAssay AID1347073 (National Center for Advancing Translational Sciences (NCATS), 2019).
# In all, about 45,000 compounds went through this assay and about 200 (0.44%) were called active. Inconclusive results (about 7%) are left out. Calls follow the shape of the dose curve; as a rule, active = well fitted activation curve with a large enough effect; inconclusive = small, poorly fitted or top-dose-only effect; inactive = no such curve, though single readings can be large or run the other way. Some of the results follow.
# Assay: qHTS of TDP-43 Inhibitors: NCGC Sytravon Library Screen; also: nearly all actives have a fitted effect of over 55% in size; as to growth rescue (activation): 0% is about no effect
# Settings: yeast TDP-43 toxicity rescue, BacTiter-Glo growth, 24 h; series mostly up to 46.1 µM; growth rescue (activation): at the top concentration
# Summary of the method: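 TDP-43-expressing yeast, pregrown in raffinose, seeded at OD600 0.02 in galactose medium with compound for 24 hr at 30 deg C. Growth read by BacTiter-Glo luminescence, so rescue of toxicity appears as activation.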
# Potency is read from the fitted curve at half-maximal effect.
Compound,growth rescue (activation),Potency
COc1ccc(NC(=O)c2cccnc2N2CCOCC2)cc1,inactive: -6.87%,
O=C(Nc1nnc(-c2ccccc2F)s1)c1ccccc1F,inactive: 1.33%,
CCOC(=O)c1ccc(S(=O)(=O)NCCNCc2ccccc2)cc1,inactive: -16.9%,
COc1ccc(Nc2cc(C)nc3ncnn23)cc1,inactive: -0.102%,
CC1(C(=O)NS(=O)(=O)c2cccc(F)c2)CCN1C(=O)Cc1ccc(-c2ccccc2)cc1 (stereo unspecified),inactive: 22.5%,
COc1ccccc1CCC(=O)NNC(=O)c1ccc(Br)cc1,inactive: 23.2%,
CCOC(=O)N1CCN(Cc2nc3cc(NC(=O)c4cccc(C)c4)ccc3n2C(C)C)CC1,inactive: 8.48%,
COC(=O)CN1C(=S)N(c2ccc(F)cc2)C(=O)C1CC(=O)Nc1ccc(F)cc1 (stereo unspecified),inactive: -4.77%,
O=C(Nc1ccccc1C(=O)O)c1cc(S(=O)(=O)N2CCOCC2)cs1,inactive: 8.62%,
O=C(c1cc(-c2ccncc2)nc2ccccc12)N1CCN(Cc2ccccc2)CC1,inactive: 2.69%,
CC1(C(=O)NS(=O)(=O)c2ccc(Cl)cc2)CCN1C(=O)Cc1cc(F)ccc1F (stereo unspecified),inactive: 14%,
O=C(Nc1cccnc1)c1cccc(NC(=O)c2ccco2)c1,inactive: -11.9%,
O=C(COC(=O)/C=C/c1cc(Br)ccc1F)NC1CC1,inactive: -2.94%,
CCOC(=O)CC(NC(=O)CCc1c(C)nc2ncnn2c1C)c1ccc(C)cc1 (stereo unspecified),inactive: -0.569%,
Cc1csc(NC(=O)[C@@H](NC(=O)c2ccccc2)C(C)C)n1,inactive: 7.48%,
COc1cccc(NC(=O)C2CCCN(S(=O)(=O)c3cccc4nonc34)C2)c1 (stereo unspecified),inactive: -2.78%,
Cc1ccc(C(=O)NCCCNc2ccc(C(F)(F)F)cc2[N+](=O)[O-])cc1,inactive: 0.784%,
Oc1ccccc1Nc1nc2ccccc2n2nnnc12,inactive: 5.14%,
CC(C)[C@H](NS(=O)(=O)c1ccccc1)C(=O)OCC(=O)NCc1ccc2c(c1)OCO2,inactive: 0.697%,
Cc1[nH]c2ccccc2c1N=Nc1c(C)n(C)n(-c2ccccc2)c1=O,inactive: 13.4%,
COc1ccc(-c2[nH]ncc2CN(Cc2nccn2C)C(C)C)c(F)c1,inactive: -3.89%,
O=C(c1cccc(S(=O)(=O)N2CCCc3ccccc32)c1)N1CCN(c2ccccc2)CC1,inactive: 29.2%,

Compound,growth rescue (activation),Potency
CCN(CC)CCOC(=O)c1ccc(NC(=O)CNC(=O)C2CCCCC2)cc1,inactive: -0.391%,
COc1ccc(O)c(C2=Nc3ccccc3N=C(c3ccccc3)C2)c1,inactive: 9.17%,
Cc1cc(C)nc(NC2=NCC(=O)N2c2ccc(F)c(Cl)c2)n1,inactive: -3.65%,
O=C(O)c1cc(NC(=O)c2ccc([N+](=O)[O-])cc2)cc(NC(=O)c2ccc([N+](=O)[O-])cc2)c1,inactive: 2.1%,
N=C1C(c2ccccc2)=C(O)CN1c1cccc(S(N)(=O)=O)c1,inactive: 0.936%,
CC(=O)Nc1cc(-c2ccc(S(C)(=O)=O)cc2)cn2c(-c3ccc(F)cc3)cnc12,inactive: -6.38%,
O=C(CNCc1ccccc1Cl)NCc1ccco1,inactive: 8.47%,
CC(C)c1cccc(-c2csc(C(O)c3ccc(F)cc3)n2)c1 (stereo unspecified),inactive: -6.87%,
CC1N(C(=O)N2CCOCC2)CCN1S(=O)(=O)c1ccc(Cl)cc1 (stereo unspecified),inactive: -7.09%,
CCCn1ncc(CN2CCN(Cc3ccsc3)C(CCO)C2)c1C (stereo unspecified),inactive: -5.8%,
Cc1cccc(Nc2nc(N)c([N+](=O)[O-])c(N3CCCC(C)C3)n2)c1 (stereo unspecified),inactive: -93%,
Cc1cccc(C(=O)Nc2ccccc2C(=O)Nc2ccc(C(=O)O)cc2)c1,inactive: -1.67%,
Cc1cccn2c(=O)c3cc(C(=O)NCC4CCCO4)c(=N)n(Cc4cccnc4)c3nc12 (stereo unspecified),inactive: 3.41%,
Cc1ccc(C)c(S(=O)(=O)NCCCN2CCOCC2)c1,inactive: -0.693%,
COCCSc1nnc(NC(=O)C2CCN(C(=O)c3ccco3)CC2)s1,inactive: 6.15%,
COC(=O)C1=CN(Cc2ccc(C)cc2)C=C(C(=O)OC)C1c1ccc(F)c(F)c1,inactive: -3.28%,
CCC(CC)c1nnc(NC(=O)CN2C(=O)c3ccccc3C2=O)s1,inactive: -8.36%,
CN1CCN(c2cc(-c3cccc(C(=O)O)c3)nc3ccnn23)CC1,inactive: 2.96%,
O=C(COC(=O)c1cccc(NS(=O)(=O)c2ccc(F)c(F)c2)c1)NC(=O)NC1CCCC1,inactive: -30.6%,
COc1ccc(CCNC(=O)CCc2nnc(Cc3ccc4c(c3)OCO4)o2)c(OC)c1,inactive: -10.5%,
CCCCN1C(=O)C(=O)N(CC(=O)c2cc(C)n(C3CC3)c2C)C1=O,inactive: 10%,
O=C(CCNC(=O)OCc1ccccc1)NC1CCCCC1,inactive: 13%,

Compound,growth rescue (activation),Potency
COc1ccc(-c2noc(CN(C(=O)C(C)Oc3ccc(C)cc3)C(C)C)n2)cc1 (stereo unspecified),,active: 20 µM
CCOc1ccc(NC(=O)N2CCN(c3ccc(Cl)c(Cl)c3)CC2)cc1,inactive: -0.5%,
Cc1oc2c(C)c3oc(=O)c4c(c3cc2c1C)CCC4,inactive: 18.1%,
O=C(O)c1ccccc1SCc1cn2cc(Cl)ccc2n1,inactive: -13.8%,
CN1C(=O)/C(=C\c2ccco2)N=C1c1ccc(Cl)cc1Cl,inactive: -12.3%,
O=C(/C=C/c1ccco1)NC(=S)Nc1ccc(O)c(-c2nc3ccccc3s2)c1,inactive: -6.12%,
COc1ccc2[nH]c(=O)c(CN(C(=O)c3cccnc3)c3ccc(C)c(C)c3)cc2c1,inactive: 15.4%,
O=C(CC1(O)C(=O)Nc2ccccc21)c1cccc(Br)c1 (stereo unspecified),inactive: -30.6%,
COc1ccccc1OCC(=O)N/N=C1\CCCCc2ccccc21,inactive: 30.1%,
NS(=O)(=O)c1ccc(NC(=S)Nc2nn(Cc3ccc(Cl)cc3Cl)cc2Cl)cc1,inactive: 18.8%,
CCCCNC(=O)[C@@H]1CSC2c3ccccc3C(=O)N21 (stereo partly specified),inactive: -0.544%,
O=C(CNC(=O)c1ccc(Cl)cc1Cl)OC1CCCCC1=O (stereo unspecified),inactive: 32.1%,
Cc1cccc(/C=N/n2c(-c3ccncc3)n[nH]c2=S)c1,inactive: 3.72%,
COc1cc(CCC(=O)NNC(=O)c2cccc(Cl)c2)cc(OC)c1OC,inactive: 12.4%,
CC(Sc1nnc2ccccn12)C(=O)Nc1ccc(N2CCOCC2)cc1 (stereo unspecified),inactive: -5.24%,
COc1ccccc1/C=C/C=N/NC(=O)c1ccccn1,inactive: 18.3%,
COc1ccc(-n2c(CN3CCN(c4ccccc4)CC3)nc3ccc([N+](=O)[O-])cc3c2=O)c(OC)c1,inactive: 5.45%,
CCCS(=O)(=O)NC(=O)C1(C)CCN(C(=O)c2cccc(C(F)(F)F)c2)C1 (stereo unspecified),inactive: -6.48%,
CC(NC(=O)COC(=O)c1c[nH]c2ccccc12)c1ccccc1 (stereo unspecified),inactive: -17.4%,
CC1CN(S(=O)(=O)c2ccc(C(=O)NC3CCCCC3)cc2)CC(C)O1 (stereo unspecified),inactive: 23.1%,
COC(=O)C(C)n1cnc2c(cnn2-c2ccc(Cl)cc2)c1=O (stereo unspecified),inactive: 11.5%,
COc1ccc2[nH]cc(CCNC(=O)C3CC(=O)N(c4ccc(Cl)cc4)C3)c2c1 (stereo unspecified),inactive: -32.9%,
